ChEMBL document CHEMBL1201862, “PubChem BioAssay data set” (2004)
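Cells were grown in 96-well plates and exposed to each compound for 48 hours at five concentrations; endpoints were interpolated linearly between bracketing concentrations, or set to the highest concentration if not reached. Here, GI50 denotes the concentration required for 50% inhibition of growth.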 Activity calls are given as the source filed them. Rule as the data show it: active = GI50 up to about 1.1 µM and inactive = higher. Numbered stars: 1 amine (or outer) side, 2 acyl side, 3 side chain; on linkers, the order of the positions; unused ones are H or OH. Bridge positions count the residues as written; N and C are the ends. Square brackets hold non-standard residues; d marks the D form. Peptide text beside a SMILES is read from it. ξ: configuration not given here. X30 = CCC(C)C(N[*:1])C(O)CC(=O)O[C@H](C(=O)C(C)C(=O)[*:2])C(C)C; NMeY = CN[C@@H](Cc1ccc(O)cc1)C(=O)O; ξNMeL = CNC(CC(C)C)C(=O)O; ξT = CC(O)C(N)C(=O)O

Tested on: NCI-H322M
Test: NCI-60 cell line screen, 48 h

With `Cc1cc(O)nc(NNC(C#N)c2ccco2)n1` (stereo unspecified) as the molecule, how does the GI50 read?
The GI50 was inactive: > 100 µM.

`N#CC1=C2SCCN2C(=O)C(C#N)C12CCCCC2` (stereo unspecified) was tested. Which GI50 did it give?
Its GI50 is inactive: > 100 µM.

For `O=C1CC(C(=O)N2CCCCC2)n2c(=O)n(-c3ccccc3)c(=O)n2C1` (stereo unspecified), which GI50 is on record?
The GI50 was inactive: > 100 µM.

`CCOC(=O)C(O)(NC(C)=O)C(F)(F)F` (stereo unspecified) was tested. Which GI50 did it give?
The GI50 was inactive: > 100 µM.

For `Cc1noc(C)c1C1=CCCCc2ccccc21`, which GI50 is on record?
The GI50 was inactive: > 100 µM.

Which GI50 does the source give for `[N-]=[N+]=Nc1ccc2c(c1)Sc1ccccc1N2CCCCCl` here?
The GI50 was inactive: > 100 µM.

How did the GI50 turn out when `COc1cc2c(cc1OC)C1(c3ccccc3)ON=C(c3ccccc3)N1CS2` (stereo unspecified) was run?
The GI50 was inactive: > 100 µM.

For `c1ccc(-c2cc(C3CO3)c3ccccc3n2)cc1` (stereo unspecified), which GI50 is on record?
The GI50 was inactive: 18.7 µM.

For `CC(C)(C)Sc1nnc(SC(C)(C)C)c2c(SC(C)(C)C)nnc(O)c12`, which GI50 is on record?
The GI50 was inactive: 12.3 µM.

Which GI50 does the source give for `COc1ccc(Cn2c(C)nc3c2C(=O)c2ccccc2C3=O)cc1` here?
Its GI50 is inactive: 20 µM.

For `O=c1[nH]c(=O)n(C2OC(CO)C(O)C(O)C2O)cc1F` (stereo unspecified), which GI50 is on record?
The GI50 was inactive: > 100 µM.

How did the GI50 turn out when `Cc1ccc(/S(Cc2ccccc2)=N\S(=O)(=O)c2ccc(C)cc2)cc1` (stereo unspecified) was run?
Its GI50 is inactive: > 100 µM.

For `NC(=O)C1C(=O)Oc2cccnc21` (stereo unspecified), which GI50 is on record?
Its GI50 is inactive: > 100 µM.

How did the GI50 turn out when `N#Cc1c(-c2ccc(Cl)cc2)c2c(n(C3OC(CO)C(O)C(O)C3O)c1=S)CCC2` (stereo unspecified) was run?
Its GI50 is inactive: 45.2 µM.

`Cc1c(C)c(C)c(Cn2[nH]c(=O)n(C)c2=O)c(C)c1C` was tested. Which GI50 did it give?
The GI50 was inactive: > 100 µM.

With `Oc1c(C2=NNC(c3ccc(Cl)cc3Cl)C2)ccc2ccccc12` (stereo unspecified) as the molecule, how does the GI50 read?
The GI50 was inactive: 49.3 µM.

For `O=C1c2ccccc2-n2c1nc1ccccc1c2=O` [TRYPTANTHRIN], which GI50 is on record?
Its GI50 is inactive: 11.3 µM.

`CCNC(=S)N/N=C/c1cc(OC)ccc1O` was tested. Which GI50 did it give?
The GI50 was inactive: > 100 µM.

With `O=C1Nc2ccc(Br)cc2/C1=N/c1ccc2c(c1)OCO2` as the molecule, how does the GI50 read?
The GI50 was inactive: 34.4 µM.

`CCN(CCCl)c1cc(CN(C)C)cc(NC(=O)c2ccc(C(=O)Nc3cccc(N(CCCl)NN)c3)cc2)c1` was tested. Which GI50 did it give?
The GI50 was active: 0.126 µM.

With `CCCN/C(N)=N/C#N` as the molecule, how does the GI50 read?
The GI50 was inactive: > 100 µM.

`O=c1nc2n(cc1/C=C\Br)C1CC(O)C(CO2)O1` (stereo unspecified) was tested. Which GI50 did it give?
The GI50 was inactive: > 100 µM.

`COC1(c2cccs2)c2ccccc2C(OC)(c2cccs2)c2ccccc21` (stereo unspecified) was tested. Which GI50 did it give?
The GI50 was inactive: 40.7 µM.

How did the GI50 turn out when `CCNC(=O)/C=C/CCC#Cc1ccc(-c2ccc(-c3cccs3)s2)s1` was run?
The GI50 was inactive: > 100 µM.

Which GI50 does the source give for `NC(=S)N/N=C1\c2ccccc2CCC1CCC1(O)CCc2ccccc2C1=O` (stereo unspecified) here?
Its GI50 is inactive: 41.6 µM.

With `COc1cc2cc(C(=O)N3CC(CCl)c4ccc(N(C)C)cc43)[nH]c2c(OC)c1OC` (stereo unspecified) as the molecule, how does the GI50 read?
Its GI50 is active: 0.17 µM.

Which GI50 does the source give for `Cc1ccc(-n2cc(-c3ccc(Cl)cc3)c3c(N/N=C4\SCC(=O)N4C)ncnc32)cc1` here?
The GI50 was inactive: 6 µM.

For `CC1CCCN(CP(=O)(c2ccccc2)c2ccccc2)C1` (stereo unspecified), which GI50 is on record?
Its GI50 is inactive: > 100 µM.

For `CCOC(=O)/C(C#N)=C/c1ccc2c(-c3c(OCC)ccc4cc(/C=C(\C#N)C(=O)OCC)ccc34)c(OCC)ccc2c1`, which GI50 is on record?
Its GI50 is inactive: > 100 µM.

How did the GI50 turn out when `CC(C)NCC(O)c1ccc(O)c2ncccc12` (stereo unspecified) was run?
The GI50 was inactive: 62.5 µM.

How did the GI50 turn out when `O=C1C=CC[C@H](/C=C/C[C@@H](O)C[C@H](O)/C=C/c2ccccc2)O1` was run?
The GI50 was inactive: 7.67 µM.

Which GI50 does the source give for `Cc1cc(Br)cc(C)c1NC(=O)C(=O)Nn1c(S)nc2ccccc2c1=O` here?
Its GI50 is inactive: > 100 µM.

For `COc1cc(C=C2C(C)=NN(c3cccc(Cl)c3)C23SCC(=O)N3c2nc3ccccc3s2)ccc1O` (stereo unspecified), which GI50 is on record?
The GI50 was inactive: 36.1 µM.

`O=C(c1cc2ccccc2[nH]1)N1C2CCC1CN(CCOC(c1ccc(F)cc1)c1ccc(F)cc1)CC2` (stereo unspecified) was tested. Which GI50 did it give?
The GI50 was inactive: > 100 µM.

With `O=C(O)Cc1cc(F)ccc1C(=O)O` as the molecule, how does the GI50 read?
The GI50 was inactive: 49.3 µM.

With `N#CCCN(CCC#N)c1ccc(C(Sc2ccccc2)C(NC(=O)c2cc([N+](=O)[O-])ccc2Cl)C(=O)Sc2ccccc2)cc1` (stereo unspecified) as the molecule, how does the GI50 read?
Its GI50 is inactive: 9.59 µM.

`CCC(C)C1NC(=O)C(NC(=O)C(CC(C)C)N(C)C(=O)[C@@H]2CCCN2)C(C)OC(=O)[C@H](Cc2ccc(OC)cc2)N(C)C(=O)[C@@H]2CCCN2C(=O)[C@H](CC(C)C)NC(=O)C(C)C(=O)[C@H](C(C)C)OC(=O)CC1O` (stereo partly specified) (H-P[ξNMeL][ξT][X30]LP[NMeY](Me); ester 3-C) was tested. Which GI50 did it give?
Its GI50 is active: 0.00103 µM.

For `CCC[C@H](N[S+]([O-])c1ccc(C)cc1)C(C(=O)OCC)=C(c1ccccc1)c1ccccc1` (stereo partly specified), which GI50 is on record?
The GI50 was inactive: 18.7 µM.

`Cc1cccc(C2SCc3nc4ccccc4n32)c1` (stereo unspecified) was tested. Which GI50 did it give?
The GI50 was inactive: 45.8 µM.

How did the GI50 turn out when `CCCCCCCCCCCCCCCCCCOP(=O)([O-])OC1CC[N+](C)(C)CC1` [PERIFOSINE] was run?
Its GI50 is inactive: 14 µM.

`COc1cc(C2C(Cl)C(=O)N2NC(=O)c2ccccc2O)ccc1O` (stereo unspecified) was tested. Which GI50 did it give?
Its GI50 is inactive: > 100 µM.

How did the GI50 turn out when `CCOC(=O)C(C(=O)OCC)S(C)(=O)=O` was run?
Its GI50 is inactive: > 100 µM.

With `CCCCN1CN2C(=O)C(C(=O)OCC)C(=O)c3sc4nc(SC)nc1c4c32` (stereo unspecified) as the molecule, how does the GI50 read?
Its GI50 is inactive: 13.4 µM.

Which GI50 does the source give for `Cc1nc2[nH]ccn2c(=O)c1CCCl` here?
Its GI50 is inactive: 40.9 µM.

With `O=C1CCCCC/C1=C\c1ccc(Cl)cc1` as the molecule, how does the GI50 read?
Its GI50 is inactive: > 100 µM.

For `CSc1nc(NC2OCC(OC(C)=O)C(OC(C)=O)C2OC(C)=O)c(/N=C\C=N\c2c(NC3OCC(OC(C)=O)C(OC(C)=O)C3OC(C)=O)nc(SC)[nH]c2=O)c(=O)[nH]1` (stereo unspecified), which GI50 is on record?
Its GI50 is inactive: > 85.9 µM.
